Measured values published in PubChem BioAssay AID1346428 (National Center for Advancing Translational Sciences (NCATS), 2018).
The campaign covered roughly 48,000 compounds. About 1,200 (2.5%) were called active. Inconclusive results (about 2%) are left out.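 How the source made its calls: active means activation of at least 60% and not above a set upper limit (about 1 call in 100 departs from these limits); inconclusive means activation of 40% to 60%, or above that upper limit; inactive means activation under 40%.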 The list shows a part of the results.

Target: Probable G-protein coupled receptor 32 (Homo sapiens) (UniProt O75388)
Sequence of UniProt O75388 (O75388 whole entry, looked up): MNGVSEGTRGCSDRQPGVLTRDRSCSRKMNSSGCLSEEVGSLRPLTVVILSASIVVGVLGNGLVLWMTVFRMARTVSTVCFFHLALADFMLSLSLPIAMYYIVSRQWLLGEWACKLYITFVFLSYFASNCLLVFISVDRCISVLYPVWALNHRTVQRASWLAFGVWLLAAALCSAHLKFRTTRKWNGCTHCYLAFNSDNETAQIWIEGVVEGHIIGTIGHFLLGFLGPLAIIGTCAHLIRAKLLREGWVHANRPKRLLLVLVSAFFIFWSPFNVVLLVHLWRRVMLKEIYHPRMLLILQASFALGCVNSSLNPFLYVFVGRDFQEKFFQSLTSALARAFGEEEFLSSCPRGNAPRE
Assay: qHTS for Agonists of Human Resolvin D1 Receptor DRV1; further: 0% is about no effect
Conditions: CHO-K1 GPR32 beta-arrestin PathHunter luminescence, 90 min; at 76.9 µM; hits give high values; zero percent set by DMSO-only wells
How it was run: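 Cells are plated overnight, treated with compounds in DMSO for 90 minutes at 37 °C, and developed with PathHunter detection reagent for 1 hour before luminescence is read; signal reflects beta-arrestin binding to GPR32 in engineered CHO-K1 cells.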

activation, inactive:
COC(=O)CN1C(=O)CSc2ccc(S(=O)(=O)Nc3ccc(C(C)=O)cc3)cc21 -10.3%
Cc1cccc(C)c1OC(=O)CSc1nnc(CNC(=O)c2ccccc2)o1 -14.8%
CN(C(=O)CSc1nc(C2CCCC2)nc2c1c(=O)n(C)c(=O)n2C)c1ccccc1 -21.2%
CC1CCN(C(=O)CSc2nnc(-c3ccccc3)o2)CC1 -8.1%
COCCCNC(=O)CSc1nc2cc3c(cc2c(=O)n1CCCCCC(=O)NCc1ccc(OC)cc1)OCO3 -9.21%
CC(C)COC(=O)Cn1nnc2sc(-c3ccccc3)cc2c1=O 26.2%
COc1ccc(-n2nnc(-c3nsc(NC(=O)c4ccc(C)c(C)c4)n3)c2C)cc1Cl 13.1%
O=C(CSc1oc(-c2ccccc2)nc1S(=O)(=O)c1ccc(Cl)cc1)NC1CCCCC1 -6.59%
CCCc1nnc(NC(=O)Cc2coc3ccc(C(C)C)cc23)s1 -13.8%
O=C(CN1CCCN(S(=O)(=O)c2ccc(Br)cc2)CC1)Nc1cccc(C(F)(F)F)c1 -2.68%
CC1CCN(C(=O)c2ccc3c(c2)N(Cc2ccccc2)C(=O)c2ccccc2S3(=O)=O)CC1 -28.4%
Cc1ccc(NC(=O)c2cnc(SCC(=O)N3CCOCC3)n(C)c2=O)cc1C -3.29%
Cc1cc(C)c(NS(=O)(=O)c2cc(-c3onc(C)c3C)ccc2C)c(C)c1 -16.9%
COc1ccccc1-c1noc(-c2ccc(NCc3ccco3)c([N+](=O)[O-])c2)n1 -22.9%
O=C(Nc1cccc(C(F)(F)F)c1)c1cc(S(=O)(=O)N2CCCC2)c[nH]1 3.9%
Cc1cccc(N2CCN(C(=O)c3ccc4c(Cl)c5c(nc4c3)CCCC5)CC2C)c1 (configuration not stated) 0.471%
COc1ccc(NC(=O)Cn2nnc(C(=O)NCc3ccc4c(c3)OCO4)c2N)cc1 -9.86%
Cc1ccc(CCNC(=O)c2ccc3c(c2)nc2n3CCCCC2)cc1 -14%
O=C(CN1C(=O)COc2ccc(Cl)cc21)Nc1cccc(F)c1 -13%
COC(=O)CNC(=O)C1CCN(S(=O)(=O)c2cccc3nsnc23)CC1 1.91%
Cc1ccc(C(=O)c2c(N)c(C(=O)Nc3ccccc3Cl)c3ccccn23)cc1 12.2%
CCOc1ccc(OCC(=O)NCCS(=O)(=O)N2CCN(c3ccccc3F)CC2)cc1 -8.56%
COc1ccc(S(=O)(=O)Nc2ccc(-c3ccc(N4CCCC4)nn3)cc2)cc1F 15.1%
Cc1sc2ncn(CC(=O)Nc3cccc(C(F)(F)F)c3)c(=O)c2c1S(=O)(=O)N1CCN(C)CC1 8.98%
CN(c1ccc(F)cc1)S(=O)(=O)N1CCCC(C(=O)NCc2cccc(Br)c2)C1 (configuration not stated) -7.82%
Cc1ccccc1Cc1c(C)nc2nc(SCC(=O)N(C)c3ccccc3)nn2c1C -32.3%
Cc1c(C(=O)N2CCC(C)CC2)c(S(=O)(=O)NCc2ccc(Cl)cc2)c(C)n1C -12%
COc1cc2c(Nc3ccc(Br)cc3F)ncnc2cc1OCC1CCN(C)CC1 -3.97%
CC1=C(C(=O)Nc2ccc(C)cc2C)C(c2ccc([N+](=O)[O-])cc2)n2ncc(C(=O)Nc3ccc(F)cc3)c2N1 (configuration not stated) -13.7%
Cc1ccc(-n2c(=O)c3c(cnn3C)n(CC(=O)Nc3ccc(C)cc3C)c2=O)cc1 -28.1%
CC(=O)c1ccc(N2CCN(C(=O)CCC(=O)Nc3ccc4nc(N5CCCCC5)cc(C)c4c3)CC2)cc1 18.3%
CCN(CC)c1ccc2cc(-c3nc(-c4cccs4)no3)c(=O)oc2c1 8.2%
COc1ccc(S(=O)(=O)NCCc2csc3nc(-c4cccc(C)c4)nn23)cc1F 20.4%
CCCCN1C(=O)c2[nH]nc(-c3ccccc3O)c2C1c1ccc(OCc2ccccc2)cc1 (configuration not stated) 42.1%
CC1CCN(S(=O)(=O)c2ccc3c(c2)c(=O)c(C(=O)NCCc2ccccc2)cn3C)CC1 -8.47%
CN(C)CCNC(=O)c1ccc2c(c1)NC(=O)C(CS(=O)(=O)Cc1cccc(Br)c1)N2 (configuration not stated) -6.58%
Cc1ccc(S(=O)(=O)N2CCCc3cc(NS(=O)(=O)c4cccc(Cl)c4)ccc32)cc1 -11.4%
COc1ccccc1CNC(=O)c1c(O)nc2c(C)cccn2c1=O -6.03%
COc1ccc2c(c1)cc1c(=O)n(CC(=O)NC(C)C)nc(C)n12 -3.75%
CC(=O)c1ccc(NC(=O)CSc2nnc3ccc(-c4ccc(Br)cc4)nn23)cc1 0.941%
COc1ccccc1CNC(=O)CN(C)c1nn2c(=O)cc(C)nc2s1 1.75%
CCc1ccc(NC(=O)C2CCCN2S(=O)(=O)c2ccc3c(c2)n(C)c(=O)c(=O)n3C)cc1 (configuration not stated) -3.76%
COc1ccccc1NC(=O)CCC(=O)N1CC(C)Oc2ccc(C)cc21 (configuration not stated) -16.1%
Cc1ccc(Nc2sc(C(=O)c3ccccc3)c(N)c2C(=O)Nc2ccc(Cl)cc2)cc1 -85.4%
COc1cc2c(cc1OC)n(CC(=O)c1cccc(Cl)c1)c(=O)n1nc(CCn3nc(C)cc3C)nc21 -3.6%
CCOCCCNC(=O)c1cc(Sc2cccc(Cl)c2)nc2ccccc12 14.1%
COc1ccc(-c2cn3nc(N4CCCC(C(=O)Nc5cccc(OC)c5)C4)sc3n2)cc1 (configuration not stated) -10.8%
O=C(CCN1C(=O)c2ccccc2Sc2ncccc21)Nc1ccc(F)cc1F -13.8%
COc1ccc(C2NC(=O)NC(C)=C2C(=O)Nc2ccccc2)cc1OC (configuration not stated) -12.7%
COc1cccc(C(=O)N2c3ccc(C)cc3C(C)(c3ccccc3)CC2(C)C)c1 (configuration not stated) -80.8%
Cc1ccccc1C(=O)Nc1sc2c(c1C(=O)N1CCCCC1)CCC(C)C2 (configuration not stated) -24.2%
Cc1ccc(CC(=O)Nc2ccc3c(c2)N(C)C(=O)c2ccccc2S3)cc1 -10.1%
